According to the supplement of paper PMC4967469:

Legend:
Test in all cases: Viability of human cancer cell lines after 72 h of drug (GDSC screen)
QS11 = compound: OC[C@H](Cc1ccccc1)Nc1nc(Oc2ccc3c(c2)CCC3)nc2c1ncn2Cc1ccc(-c2ccccc2)cc1 [QS11]; conditions: top dose 10.24 µM
Description: (§1)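 Human cancer cell lines in 384-well plates, medium with 10% serum, drug for 72 h over a 256-fold dose range (nine 2-fold or five 4-fold steps up to the top dose). Adherent lines were fixed and stained with the nucleic acid dye Syto60, suspension lines read with resazurin; signal relative to control wells, capped at 0 and 100%. One two-parameter sigmoid per drug and line, fitted in a mixed model over all curves with the slope shared within a line.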

RDEA119 = compound: COc1cc(F)c(F)c(Nc2ccc(I)cc2F)c1NS(=O)(=O)C1(C[C@H](O)CO)CC1 [RDEA119]; conditions: top dose 5 µM, top dose inferred
Description: as §1

JNK-9L = compound: Fc1cc(-c2ccnc(Nc3ccc(-n4cnc(N5CCOCC5)n4)cc3)n2)cc(N2CCOCC2)c1 [JNK-9L]; conditions: top dose 5.12 µM; top dose inferred
Description: as §1

AC220 = compound: CC(C)(C)c1cc(NC(=O)Nc2ccc(-c3cn4c(n3)sc3cc(OCCN5CCOCC5)ccc34)cc2)no1 [AC220]; conditions: top dose 1.024 µM; top dose inferred
Description: as §1

5-Fluorouracil = compound: O=c1[nH]cc(F)c(=O)[nH]1 [5-Fluorouracil]; conditions: top dose 32 µM; top dose inferred
Description: as §1

CUDC-101 = compound: C#Cc1cccc(Nc2ncnc3cc(OC)c(OCCCCCCC(=O)NO)cc23)c1 [CUDC-101]; conditions: top dose 5.12 µM; top dose inferred
Description: as §1

OSU-03012 = compound: NCC(=O)Nc1ccc(-n2nc(C(F)(F)F)cc2-c2ccc3c(ccc4ccccc43)c2)cc1 [OSU-03012]; conditions: top dose 16 µM; top dose inferred
Description: as §1

Row | Cell Line | AUC (QS11) | IC50 (QS11) [µM] | AUC (RDEA119; screen: GDSC drug entry 1014) | IC50 (RDEA119; screen: GDSC drug entry 1014) [µM] | AUC (RDEA119; screen: GDSC drug entry 1526) | IC50 (RDEA119; screen: GDSC drug entry 1526) [µM] | AUC (JNK-9L) | IC50 (JNK-9L) [µM] | AUC (AC220) | IC50 (AC220) [µM] | AUC (5-Fluorouracil) | IC50 (5-Fluorouracil) [µM] | AUC (CUDC-101) | IC50 (CUDC-101) [µM] | AUC (OSU-03012) | IC50 (OSU-03012) [µM]
1 | P12-ICHIKAWA (T-cell lymphoblastic leukaemia, suspension) | 0.847 | 5.11 | 0.994 | > 5 | 0.994 | > 5 | 0.667 | 0.826 | 0.978 | > 1.02 | 0.679 | 5.54 | 0.204 | 0.0569 | 0.516 | 1.1
2 | P30-OHK (lymphoblastic leukaemia, suspension) | 0.798 | 3.96 | 0.985 | > 5 | 0.982 | > 5 | 0.523 | 0.366 | 0.944 | > 1.02 | 0.61 | 3.8 | 0.292 | 0.0932 | 0.491 | 0.95
3 | P31-FUJ (acute myeloid leukaemia, suspension) | 0.995 | > 10.2 | 0.899 | 3.67 | 0.762 | 1.41 | 0.851 | 2.57 | 0.995 | > 1.02 | 0.97 | > 32 | 0.666 | 0.819 | 0.902 | 12
4 | P32-ISH (Burkitt lymphoma, suspension) | 0.881 | 6.28 | 0.994 | > 5 | 0.988 | > 5 | 0.505 | 0.328 | 0.98 | > 1.02 | 0.588 | 3.28 | 0.271 | 0.0874 | 0.717 | 3.41
5 | PA-1 (ovary, adherent) | 0.92 | 9.83 | 0.988 | > 5 |  |  | 0.41 | 0.192 | 0.99 | > 1.02 | 0.451 | 1.52 | 0.255 | 0.0772 | 0.646 | 2.3
6 | PA-TU-8902 (pancreas, adherent) | 0.943 | > 10.2 | 0.629 | 0.757 | 0.62 | 0.71 | 0.641 | 0.84 | 0.984 | > 1.02 | 0.779 | 15.4 | 0.423 | 0.19 | 0.69 | 3.76
7 | PA-TU-8988T (pancreas, adherent) | 0.849 | 7.71 |  |  | 0.709 | 1.22 | 0.613 | 0.656 | 0.985 | > 1.02 | 0.864 | 28 | 0.741 | 1.57 | 0.635 | 2.36
8 | PANC-02-03 (pancreas, adherent) | 0.982 | > 10.2 | 0.474 | 0.261 | 0.627 | 0.754 | 0.637 | 0.827 | 0.981 | > 1.02 | 0.713 | 9.15 | 0.396 | 0.156 | 0.837 | 13.9
9 | PANC-03-27 (pancreas, adherent) | 0.839 | 6.36 | 0.643 | 0.753 | 0.758 | 1.63 | 0.478 | 0.28 | 0.988 | > 1.02 | 0.598 | 3.63 | 0.593 | 0.566 | 0.659 | 2.68
10 | PANC-04-03 (pancreas, adherent) | 0.908 | > 10.2 | 0.71 | 1.78 | 0.625 | 0.853 | 0.666 | 1.23 | 0.951 | > 1.02 | 0.92 | > 32 | 0.873 | > 5.12 | 0.786 | 12.1
11 | PANC-08-13 (pancreas, adherent) | 0.982 | > 10.2 |  |  | 0.978 | > 5 | 0.345 | 0.105 | 0.981 | > 1.02 | 0.856 | > 32 | 0.703 | 1.41 | 0.982 | > 16
12 | PANC-10-05 (pancreas, adherent) | 0.976 | > 10.2 |  |  | 0.731 | 1.74 | 0.576 | 0.549 | 0.962 | > 1.02 | 0.696 | 8.38 | 0.528 | 0.39 | 0.757 | 6.98
13 | PC-3 [JPC-3] (lung adenocarcinoma, adherent) | 0.963 | > 10.2 | 0.933 | > 5 | 0.901 | > 5 | 0.56 | 0.494 | 0.981 | > 1.02 | 0.801 | 21.8 | 0.613 | 0.724 | 0.778 | 8.78
14 | PCI-4B (head and neck, adherent) | 0.919 | > 10.2 | 0.598 | 0.572 | 0.685 | 0.997 | 0.557 | 0.455 | 0.987 | > 1.02 | 0.504 | 2.05 | 0.442 | 0.224 | 0.659 | 2.7
15 | PCI-6A (head and neck, adherent) | 0.886 | > 10.2 | 0.759 | 1.72 | 0.949 | > 5 | 0.546 | 0.427 | 0.985 | > 1.02 | 0.836 | 20.6 | 0.269 | 0.0716 | 0.662 | 2.78
16 | PCI-15A (head and neck, adherent) | 0.988 | > 10.2 | 0.713 | 1.25 | 0.8 | 2.44 | 0.637 | 0.769 | 0.975 | > 1.02 | 0.986 | > 32 | 0.88 | > 5.12 | 0.772 | 6.25
17 | PCI-30 (head and neck, adherent) | 0.984 | > 10.2 | 0.946 | > 5 | 0.894 | > 5 | 0.983 | > 5.12 | 0.981 | > 1.02 | 0.976 | > 32 | 0.906 | > 5.12 | 0.901 | > 16

The IC50 comes from the fitted curve, where viability falls to half of the control; where the fit passes the top or lowest dose, that dose stands as a limit. AUC is the area under the same curve over the 256-fold range up to the top dose, as a fraction; values near 1 show little effect. For part of these data: The top dose, if marked as inferred, is not printed in the source and was worked back from the curve model. For part of these data: An entry number marks a drug with two screens in the source, which often give different values.
